This assay has as its target T1, AGR2 (endogenous, mouse colon) (mouse (endogenous in colon tissue)) (UniProt O88312).
T1 sequence: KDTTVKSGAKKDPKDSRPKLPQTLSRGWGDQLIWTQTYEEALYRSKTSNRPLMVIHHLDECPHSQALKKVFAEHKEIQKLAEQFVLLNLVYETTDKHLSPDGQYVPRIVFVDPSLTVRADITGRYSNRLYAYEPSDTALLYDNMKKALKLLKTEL
Put plainly: co-IP; anti-AGR2 (clone 6C5) on Protein G Dynabeads, lysates of digested mouse colon in E1A buffer, 2 h; blot for IRE1β; Agr2-deficient mice as negative control.

Results are given in words; binding and its absence hold for the method and conditions named. Binding seen in cells or lysates may run through a third protein. Some binding calls cover weakened binding; strength is not graded here.

B1: IRE1β (endogenous, mouse colon) (protein, UniProt Q9Z2E3 34-911)
chain: VRPESLLFVSTLDGSLHALNKQTGDLKWTVKDDPIIQGPMYVTEMAFLSDPADGSLYVLGTQKQQGLMKLPFTIPELVHASPCRSSDGVFYTGRKQDAWFVVDPESGETQMTLTTEGLSTPQLFIGRTQYTVSMHDLRTPALRWNTTYRRYSAPLLNGSPGKYMSHLTSCGMGLLLTVDPGSGIVLWTQDLGVPVTGIYTWHQDGLHQLPHLTLARDTLHFLVLRWGHIRLPASSYQDTATQFSSLDTQLLMTLYVGKEEAGFYVSKALVHAGVALVPRGLTLAPMDGPTTDEVTLQVSGEREGSPSTAVRYPSGSVALPSQWLLIGYHEPPPVLHTTMLRVHPIPGKVSAETRASEDLHAPPVFFELLNLRREDPELHPEEKASDSYPGLGSQDLLAATFTAILLGAWVLYLMRQQQQSPSAPAGPPDLSQDAQGQLSRDILQDQRRFQSPSEPAQPPHDPEAGQPTVVGKISFNPKDVLGRGAGGTFVFRGQFEGRAVAVKRLLRECFGLVRREVQLLQESDRHPNVLRYFCTEHGPQFHYIALELCQASLQEYVESPDLDRWGLEPTTVLQQMMSGLAHLHSLHIVHRDLKPANILMAGPDSQGQGRVVISDFGLCKKLPVGRCSFSLHSGIPGTEGWMAPELLQLPPDSPTSAVDIFSAGCVFYYVLSGGSHPFGESLYRQANILSGDPCLAQLQEETHDKVVALDLVRAMLSLLPQDRPSAGWVLAHPLFWSRAKELQFFQDVSDWLEKEPDQGPLVSALEAGSYKVVREDWHKHISAPLQADLKRFRSYKGTSVRDLLRAMRNKKHHYRELPAEVRQTLGQLPAGFIQYFTQRFPRLLLHTHRAMRTCASESLFLPYYPPALEARRPDATKS
As to B1, the binding entry is listed as “binds”.
